# Source: PMC4336329 (PLoS ONE, 2015)
# Screen size: about 310,000 compounds; about 14,000 (4.5%) showed an effect of 50% or more. Effects have a minus sign here. Some of the results follow.
# Molecular target: human ether-à-go-go-related gene (hERG) potassium channel (human, UniProt Q12809)
# Assay: primary screen, population patch clamp on CHO cells stably expressing hERG
# 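Also: peak tail current of the secondary pulse compared with the same well before compound.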
# Chain of human ether-à-go-go-related gene (hERG) potassium channel (Q12809 whole entry, looked up): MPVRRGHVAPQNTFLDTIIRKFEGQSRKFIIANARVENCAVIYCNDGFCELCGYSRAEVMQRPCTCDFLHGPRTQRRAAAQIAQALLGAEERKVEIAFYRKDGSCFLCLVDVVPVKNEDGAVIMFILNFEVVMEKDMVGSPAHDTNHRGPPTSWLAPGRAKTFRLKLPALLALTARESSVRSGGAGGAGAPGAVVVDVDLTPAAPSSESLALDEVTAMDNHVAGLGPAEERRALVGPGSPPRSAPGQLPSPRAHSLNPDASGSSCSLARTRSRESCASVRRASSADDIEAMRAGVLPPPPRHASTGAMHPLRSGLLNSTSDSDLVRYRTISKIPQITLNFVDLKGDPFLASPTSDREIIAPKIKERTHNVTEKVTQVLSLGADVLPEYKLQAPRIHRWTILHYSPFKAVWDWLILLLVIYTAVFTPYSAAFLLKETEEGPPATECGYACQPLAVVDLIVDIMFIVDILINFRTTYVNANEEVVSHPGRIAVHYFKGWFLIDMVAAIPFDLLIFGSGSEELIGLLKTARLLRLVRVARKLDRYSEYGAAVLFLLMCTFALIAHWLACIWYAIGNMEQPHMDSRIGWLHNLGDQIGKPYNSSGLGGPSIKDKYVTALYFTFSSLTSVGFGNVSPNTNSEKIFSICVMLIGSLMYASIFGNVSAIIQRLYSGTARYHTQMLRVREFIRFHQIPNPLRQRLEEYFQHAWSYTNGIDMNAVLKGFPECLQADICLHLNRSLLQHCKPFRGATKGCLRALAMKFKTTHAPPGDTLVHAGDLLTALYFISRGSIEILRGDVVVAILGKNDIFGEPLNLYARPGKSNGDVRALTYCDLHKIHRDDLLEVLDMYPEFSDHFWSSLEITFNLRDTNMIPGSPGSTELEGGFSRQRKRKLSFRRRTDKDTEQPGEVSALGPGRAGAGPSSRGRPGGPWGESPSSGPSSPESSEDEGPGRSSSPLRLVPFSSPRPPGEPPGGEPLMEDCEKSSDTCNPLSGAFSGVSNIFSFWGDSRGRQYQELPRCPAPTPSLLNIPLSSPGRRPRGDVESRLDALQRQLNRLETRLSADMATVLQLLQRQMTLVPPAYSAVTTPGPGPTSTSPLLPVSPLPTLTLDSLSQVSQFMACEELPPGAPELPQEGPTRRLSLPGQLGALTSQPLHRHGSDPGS
row,SMILES,"hERG current change (%, negative = inhibition) at 10uM"
1,COC(=O)Cc1cc(=O)n2[nH]c(SC)nc2n1,9.22%
2,CCn1cc(CNC(=O)C2C3CCC(C3)C2C(=O)O)cn1 (stereo not drawn),14.4%
3,C=CCn1c(SCc2nc3ccccc3c(=O)[nH]2)nc2sc3c(c2c1=O)CCCC3,2.93%
4,CCn1c(C)nc2cc(C(=O)NNC(=O)Nc3ccc(Cl)c(Cl)c3)ccc21,20.2%
5,Cc1ccc(-n2c(C)nn(CCOc3ccccc3)c2=O)cc1,1.54%
6,O=C(NCC12CC3CC(CC(C3)C1)C2)c1nn2c(c1Cl)NC(c1ccco1)CC2C(F)(F)F (stereo not drawn),8.61%
7,O=C(c1cccc(C(F)(F)F)c1)N1CCN(C2CCCCC2)CC1,-27.1%
8,CN(c1ccccc1)S(=O)(=O)c1ccc(Cl)c(C(=O)Nc2ccc(-c3nc4ccccc4[nH]3)cc2)c1,11.7%
9,CN(C)c1cccc(C(=O)OCC(=O)NCC2CCCO2)c1 (stereo not drawn),6.36%
10,O=C(NCc1ccco1)/C(=C\C=C\c1ccccc1)NC(=O)c1ccco1,-38.3%
11,Cc1ccc(CNC(=O)C(=O)NCC2OCCN2S(=O)(=O)c2ccc(C)cc2)cc1 (stereo not drawn),22.1%
12,O=C(Nc1ccccn1)c1ccc(Cl)c(S(=O)(=O)N2CCc3ccccc32)c1,-10%
13,Cn1c(CNc2ccccc2O)nc2ccccc21,-2.8%
14,Cc1ccc(Cn2c(SCC(=O)N(C)C3CCS(=O)(=O)C3)nc3ccccc3c2=O)cc1 (stereo not drawn),-60.8%
15,CCn1c(SCC(=O)Nc2ccc(F)cc2)nnc1C1CC1,-0.652%
16,O=C(Nc1cccc(-c2cnc3ccccc3n2)c1)c1cccc(NC(=O)c2ccco2)c1,7.85%
17,O=C(CCCN1C(=O)/C(=C/c2cccs2)SC1=S)Nc1ccc(O)cc1,14.5%
18,CCn1c(SCC(=O)Nc2ncc(C(F)(F)F)cc2Cl)nnc1-c1ccccc1,-12.6%
19,CC(=O)c1cccc(NC(=O)CCCSc2ccccc2)c1,-17%

row,SMILES,"hERG current change (%, negative = inhibition) at 10uM"
1,CC(=O)N1CCN(c2ccc([N+](=O)[O-])c(NCC3CCCO3)c2)CC1 (stereo not drawn),-18.3%
2,Cc1ccc(OCc2nnc(SCC(=O)NCc3ccco3)n2C)cc1,-21.5%
3,Nc1cccn2c(-c3ccc(Cl)cc3)cnc12,7.91%
4,CCOC(=O)c1ccc(N2C(=O)CC(SCC(N)C(=O)OCC)C2=O)cc1 (stereo not drawn),-13.4%
5,C=CCn1c(COc2ccccc2F)nnc1SCC(=O)NC(=O)NCc1ccco1,-0.537%
6,CC1(C)CC2CC(C)(CN2C(=O)Cc2ccccc2)C1 (stereo not drawn),4.36%
7,CCOc1ccc(C(=O)N2CCN(c3ccccc3)CC2)cc1,-36.3%
8,Cc1ccc(-c2nnn(CC(=O)N(CC(=O)NC3CCCCC3)c3ccc(F)c(Cl)c3)n2)o1,10.2%
9,COc1ccc(OC)c(NC(=O)CCN2CCCCC2)c1,7.47%
10,O=[N+]([O-])c1ccccc1S(=O)(=O)N1CCN(C2CCCC2)CC1,0.58%
11,COc1ccc(C(=O)CSc2nnc(-c3ccccc3)o2)cc1,6.76%
12,COc1ccc(-c2cc(C(F)(F)F)c(C#N)c(SCC(=O)Nc3nc(C)co3)n2)cc1,1.46%
13,COc1cccc(-c2nc(CCl)cs2)c1.Cl,0.958%
14,CC1(C)CC(=O)C(C=NCCN2CCN(C(=S)Nc3cccc(Cl)c3)CC2)=C(O)C1,-66.3%
15,CC(C)(CO)NCC#Cc1ccccc1.Cl,10%
16,COc1cc(NC2CCCCC2O)c2nc(-c3ccc(Cl)cc3)ccc2c1 (stereo not drawn),5.62%
17,Cc1c(CN(C)C(=O)c2nn(C)cc2[N+](=O)[O-])cnn1C,8.63%
18,Oc1ccc(C2Nc3cccc4cccc(c34)N2)cc1,12.8%
19,C=C(C)CN1C(=O)C2(OCCO2)c2ccccc21,17.7%

row,SMILES,"hERG current change (%, negative = inhibition) at 10uM"
1,COC(=O)C1=C(C)NC(C)=C(C(=O)OC)C1C1CC=CCC1 (stereo not drawn),10.4%
2,CCc1nnc(NC(=O)CSc2nc(C)cc(C)c2C#N)s1,9.06%
3,COc1ccccc1Oc1nc([N+](=O)[O-])nn1CC(N)=O,35.5%
4,Cc1ccccc1N=C1NC(=O)/C(=C/c2cccnc2)S1,4.08%
5,CC(C)C(c1nnnn1C1CCCC1)N1CCCc2ccccc21 (stereo not drawn),-9.14%
6,Cc1ccc(S(=O)(=O)N2CCN(CC(=O)N/N=C\c3ccc(O)c(O)c3)CC2)cc1,-8.76%
7,CCOC(=O)N1CCN(C(=O)C(CC)n2nc(C)c3sc4ccccc4c3c2=O)CC1 (stereo not drawn),-6.79%
8,O=C(NCCNC(=O)c1ccccc1Br)c1ccccc1Br,8.51%
9,CCCNC(=O)C(=O)NCCC1=CCCCC1,6.61%
10,O=C(Nc1ccc([N+](=O)[O-])cc1)N1CCc2ccccc2C1,-12.5%
11,O=C(Cc1cccs1)N1CCN(c2ccc(F)cc2)CC1,-4.82%
12,Cc1cc(Sc2ccc([N+](=O)[O-])cn2)ccc1Br,-2.43%
13,COc1ccc(C(=O)Nc2ccc(NC(=O)c3cccc(F)c3)cn2)cc1,8.06%
14,Cc1ccc(-n2nc3c(c2NC(=O)c2c(-c4ccccc4Cl)noc2C)CS(=O)(=O)C3)c(C)c1,-10.5%
15,CCCCN(C(C)=O)C1CC(=O)N(c2ccc(OCCC)cc2)C1=O (stereo not drawn),0.99%
16,CCC(=O)c1ccc(OCc2ccccc2)c(OC)c1,16.7%
17,CCc1ccc2nc(SCC(=O)NCC3CCCO3)c(C#N)cc2c1 (stereo not drawn),6.86%
18,Cc1ccc(S(=O)(=O)N2CCN(C(=O)CC3CCCC3)CC2)cc1,-8.41%
19,COc1ccc2[nH]c(C)c(CCNC(=S)Nc3ccccc3C)c2c1,12.9%
